Results are given in words; binding and its absence hold for the method and conditions named. Binding seen in cells or lysates may run through a third protein. Some binding calls cover weakened binding; strength is not graded here.

Chains of the proteins cited; added tags and fusions are not shown. Lines headed by an entry give the natural chain unless they say otherwise; changes in a name come on top. A line that says so, or that is headed by a name, gives the form on record, which may keep a tag or linker. Residues count along the entry.
UniProt Q76SB0: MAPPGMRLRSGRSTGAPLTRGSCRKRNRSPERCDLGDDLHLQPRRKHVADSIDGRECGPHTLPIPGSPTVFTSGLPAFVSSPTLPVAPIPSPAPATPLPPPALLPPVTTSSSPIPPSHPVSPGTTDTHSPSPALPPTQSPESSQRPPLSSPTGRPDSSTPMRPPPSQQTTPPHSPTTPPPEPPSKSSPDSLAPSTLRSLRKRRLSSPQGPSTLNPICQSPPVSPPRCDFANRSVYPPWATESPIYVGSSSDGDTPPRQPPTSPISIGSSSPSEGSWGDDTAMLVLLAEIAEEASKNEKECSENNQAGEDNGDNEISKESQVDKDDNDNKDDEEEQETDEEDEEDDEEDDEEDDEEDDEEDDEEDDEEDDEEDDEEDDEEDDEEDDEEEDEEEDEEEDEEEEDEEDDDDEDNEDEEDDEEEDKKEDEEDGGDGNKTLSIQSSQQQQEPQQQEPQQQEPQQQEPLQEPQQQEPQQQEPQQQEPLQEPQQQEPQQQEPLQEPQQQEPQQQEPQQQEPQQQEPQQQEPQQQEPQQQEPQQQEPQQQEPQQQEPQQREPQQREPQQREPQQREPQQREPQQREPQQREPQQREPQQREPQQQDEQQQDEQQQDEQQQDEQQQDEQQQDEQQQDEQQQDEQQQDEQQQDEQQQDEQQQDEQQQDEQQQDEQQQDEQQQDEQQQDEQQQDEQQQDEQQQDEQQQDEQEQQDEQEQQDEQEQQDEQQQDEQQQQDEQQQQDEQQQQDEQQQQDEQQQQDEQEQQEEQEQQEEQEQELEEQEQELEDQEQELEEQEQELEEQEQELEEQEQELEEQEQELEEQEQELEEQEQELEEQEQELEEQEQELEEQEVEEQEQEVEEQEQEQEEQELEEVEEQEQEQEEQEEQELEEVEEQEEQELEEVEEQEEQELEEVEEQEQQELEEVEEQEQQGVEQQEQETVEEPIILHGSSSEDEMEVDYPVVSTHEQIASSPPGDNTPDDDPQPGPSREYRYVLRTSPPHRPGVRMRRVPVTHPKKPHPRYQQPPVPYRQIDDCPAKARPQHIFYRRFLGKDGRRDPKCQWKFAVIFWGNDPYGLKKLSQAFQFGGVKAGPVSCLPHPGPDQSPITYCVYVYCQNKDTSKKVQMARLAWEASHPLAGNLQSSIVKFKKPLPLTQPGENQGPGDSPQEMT
GST-fused kLANA(934–1162) wt (Kaposi sarcoma-associated herpesvirus (KSHV)): residues 934-1162 of Q76SB0
UniProt P25440: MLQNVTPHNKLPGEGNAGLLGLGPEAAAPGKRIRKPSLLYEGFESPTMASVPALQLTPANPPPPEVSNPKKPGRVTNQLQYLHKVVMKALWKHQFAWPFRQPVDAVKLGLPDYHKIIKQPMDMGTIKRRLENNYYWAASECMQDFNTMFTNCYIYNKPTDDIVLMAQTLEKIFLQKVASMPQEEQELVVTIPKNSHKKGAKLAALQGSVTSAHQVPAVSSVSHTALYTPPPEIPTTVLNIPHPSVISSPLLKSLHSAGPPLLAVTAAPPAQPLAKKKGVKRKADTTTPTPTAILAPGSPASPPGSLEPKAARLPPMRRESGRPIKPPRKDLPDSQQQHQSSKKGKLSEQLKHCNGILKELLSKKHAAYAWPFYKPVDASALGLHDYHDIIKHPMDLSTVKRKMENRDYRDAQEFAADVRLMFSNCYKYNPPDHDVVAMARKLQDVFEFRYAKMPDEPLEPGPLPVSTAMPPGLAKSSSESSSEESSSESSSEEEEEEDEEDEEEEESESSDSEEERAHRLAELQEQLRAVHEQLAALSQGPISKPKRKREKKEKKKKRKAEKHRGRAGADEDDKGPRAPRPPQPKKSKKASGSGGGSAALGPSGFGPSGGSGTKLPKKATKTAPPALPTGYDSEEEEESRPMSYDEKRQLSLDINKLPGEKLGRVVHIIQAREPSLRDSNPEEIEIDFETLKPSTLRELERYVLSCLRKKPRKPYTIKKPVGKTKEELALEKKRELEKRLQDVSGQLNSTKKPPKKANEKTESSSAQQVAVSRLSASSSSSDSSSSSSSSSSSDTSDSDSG
GFP-tagged BRD2 C-terminal domain (CT; aa640-801): residues 640-801 of P25440
GFP-tagged BRD2 ET domain (ET; aa640-719): residues 640-719 of P25440
GFP-tagged BRD2(720–801): residues 720-801 of P25440

In assay [1] the target is GST-fused kLANA(934–1162) wt (Kaposi sarcoma-associated herpesvirus (KSHV)) (UniProt Q76SB0). The assay is described as follows: pull-down; only the target purified.
The next assay addresses GFP-BRD2 D687A (UniProt P25440). Put plainly: co-IP; 293/293T cells co-transfected; lysis buffer 50 mM Tris pH 7.6, 60 mM NaCl, 0.5 mM EDTA, 1% glycerol, 0.2% NP-40; IP of GFP-BRD proteins with anti-GFP on Protein A beads, blot with anti-LANA.
In another assay the target is GFP-BRD2 E682A (UniProt P25440). The assay is described as above.
Another assay concerns the target GFP-BRD2 E683A (UniProt P25440). Described as above.
The target of the next assay is GFP-BRD2 E685A (UniProt P25440). The assay is described as above.
For the next assay, the target named is GFP-BRD2 E689A (UniProt P25440). The description is as above.
For another assay, the target named is GFP-BRD2 F688Y (UniProt P25440). The assay is described as above.
For a further assay, the target named is GFP-BRD2 R648A (UniProt P25440). The assay is described as above.
The target of assay [2] is GFP-tagged BRD2 C-terminal domain (CT; aa640-801) (UniProt P25440). The description is as above.
The target in assay [3] is GFP-tagged BRD2 ET domain (ET; aa640-719) (UniProt P25440). Described as above.
For the next assay, the target named is GFP-tagged BRD2(720–801) (UniProt P25440). The assay is described as above.
For assay [4], the target named is GFP-tagged full-length BRD2 wt (UniProt P25440). The assay is described as above.

“full-length (FL) kLANA(1–1162) wt (from UniProt Q76SB0 1-1162)”: the binding result is reported as “binds” in assay [1]; “no binding” with GFP-BRD2 D687A; “no binding” with GFP-BRD2 E682A; “no binding” with GFP-BRD2 E683A; “no binding” with GFP-BRD2 E685A; “binds” in the assay with GFP-BRD2 E689A. Besides, the binding result with GFP-BRD2 F688Y is on record as “no binding”; with GFP-BRD2 R648A, “binds”; in [2] it was “binds”; in assay [3], “binds”; in the assay with GFP-tagged BRD2(720–801), “no binding”; in assay [4], “binds”.

The values above are taken from article PMC3798688.
